Data from the supplement of paper PMC5655136.
These are enrichments in a pooled selection; single values are uncertain.

Test system: NB7
Assay: fold depletion of shRNA, plasmid library share / infected cells without Dox share (9 days) (ratio); higher = more depleted after infection (more toxic, leaky expression from a Tet-inducible vector; NB7 is a neuroblastoma line without caspase-8)
[1] = shRNA pool: CD95L ORF + CD95L 3'UTR + Venus libraries
[2] = shRNA pool: CD95 ORF + CD95 3'UTR + Venus libraries
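Also: shRNA barcodes quantified by deep sequencing of PCR amplicons from cellular DNA, counts expressed as percent of each subpool, ratio averaged over two biological duplicates.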

With TTCCTGACAATCAACTCTAAT the “fold depletion of shRNA” value [1] was 0.677.
For TTCGAAAGAATGGTGTCAATG, the “fold depletion of shRNA” value [2] was 4.9.
With TTCGAGGGCGACACCCTGGTG the “fold depletion of shRNA” value [2] was 1.2.
In the case of TTCGCCCGCTACCCCGACCAC, the “fold depletion of shRNA” value [1] is reported as 2.56 and the “fold depletion of shRNA” value [2] is reported as 1.7.
TTCGGCTTATATAAGCTCTAA was tested, and the “fold depletion of shRNA” value [1] was 0.586.
For TTCGTAATTGGCATCAACTTC, the “fold depletion of shRNA” value [2] was 1.5.
With TTCGTGACCGCCGCCGGGATC the “fold depletion of shRNA” value [2] was 1.47.
With TTCTAAACTTTGTTTATAACT the “fold depletion of shRNA” value [2] was 0.749.
For TTCTAAATGCATATCCTGAGC, the “fold depletion of shRNA” value [1] was 2.08.
In the case of TTCTAAGATTTAAGATTCTCC, the “fold depletion of shRNA” value [2] is reported as 1.11.
For TTCTACACTCATCTTAGTGCC, the “fold depletion of shRNA” value [1] was 2.96.
In the case of TTCTAGAGATTTTACCATATT, the “fold depletion of shRNA” value [2] is reported as 0.746.
With TTCTCAGGCATCAAAAGCATT the “fold depletion of shRNA” value [2] was 1.39.
For TTCTCATGAATCTCCAACTTT, the “fold depletion of shRNA” value [2] was 0.772.
TTCTCCTTACTACTATCCTAC was tested, and the “fold depletion of shRNA” value [2] was 0.88.
In the case of TTCTGAGTATATGCAATTAGT, the “fold depletion of shRNA” value [2] is reported as 0.665.
For TTCTGCCATAAGCCCTGTCCT, the “fold depletion of shRNA” value [2] was 1.42.
TTCTGCCTCCAAGGATGTTTA was tested, and the “fold depletion of shRNA” value [2] was 1.1.
With TTCTGGAGTGAAGTATAAGAA the “fold depletion of shRNA” value [1] was 0.504.
For TTCTGGTTGCCTTGGTAGGAT, the “fold depletion of shRNA” value [1] was 4.35.
TTCTGTAAATGTAAACTGTGA was tested, and the “fold depletion of shRNA” value [2] was 0.829.
With TTCTGTAGTATGAATGTAATC the “fold depletion of shRNA” value [2] was 0.797.
For TTCTTAATAGCTGGCTGTAAA, the “fold depletion of shRNA” value [2] was 1.44.
For TTCTTACATGCATTTGAGGTC, the “fold depletion of shRNA” value [1] was 1.83.
TTCTTACGTCTGTTGCTAGAT was tested, and the “fold depletion of shRNA” value [2] was 1.11.
For TTCTTATTTTTCCCCCACCCC, the “fold depletion of shRNA” value [2] was 2.06.
TTCTTCAAGGACGACGGCAAC was tested, and the “fold depletion of shRNA” value [1] was 1.45 and the “fold depletion of shRNA” value [2] was 1.22.
TTCTTCAAGTCCGCCATGCCC was tested, and the “fold depletion of shRNA” value [1] was 5.85 and the “fold depletion of shRNA” value [2] was 1.86.
For TTCTTCCAAATGCAGAAGATG, the “fold depletion of shRNA” value [2] was 0.895.
For TTCTTCCCTGTCCAACCTCTG, the “fold depletion of shRNA” value [1] was 2.58.
TTCTTCTTTTGCCAATTCCAC was tested, and the “fold depletion of shRNA” value [2] was 2.69.
TTCTTTCCATTATGATTCTTT was tested, and the “fold depletion of shRNA” value [1] was 0.861.
TTCTTTCTCAGGCATCAAAAG was tested, and the “fold depletion of shRNA” value [2] was 1.91.
With TTCTTTGTTACAGGCACCGAG the “fold depletion of shRNA” value [1] was 8.63.
In the case of TTCTTTTGCCAATTCCACTAA, the “fold depletion of shRNA” value [2] is reported as 0.93.
For TTGAAAAGATTCTTAATAGCT, the “fold depletion of shRNA” value [2] was 0.7.
TTGAAAAGGACACCTTTTAAC was tested, and the “fold depletion of shRNA” value [1] was 0.681.
In the case of TTGAAAGTTTGTATTAAATGT, the “fold depletion of shRNA” value [2] is reported as 0.983.
TTGAATGCTTCCTGACAATCA was tested, and the “fold depletion of shRNA” value [1] was 1.55.
In the case of TTGACTATTATATATGTGTAT, the “fold depletion of shRNA” value [2] is reported as 0.787.
In the case of TTGACTTGAGTAAATATATCA, the “fold depletion of shRNA” value [2] is reported as 0.686.
For TTGAGACCACAGGGTTCAAAA, the “fold depletion of shRNA” value [1] was 1.6.
In the case of TTGAGACTCAGAACTTGGAAG, the “fold depletion of shRNA” value [2] is reported as 0.635.
With TTGAGCAGGAGAGTATTACTA the “fold depletion of shRNA” value [2] was 0.894.
With TTGAGGAAGACTGTTACTACA the “fold depletion of shRNA” value [2] was 2.09.
TTGAGGAATCTCAGACGTTTT was tested, and the “fold depletion of shRNA” value [1] was 4.01.
TTGAGGTCAAGTAAGAAGACA was tested, and the “fold depletion of shRNA” value [1] was 0.721.
TTGAGTAAATATATCACCACT was tested, and the “fold depletion of shRNA” value [2] was 1.11.
TTGAGTGCAGAATTTAAATAA was tested, and the “fold depletion of shRNA” value [2] was 1.26.
For TTGATTAAAGATCTCAAAAAA, the “fold depletion of shRNA” value [2] was 1.16.
For TTGATTGTCAGCTACTAATGA, the “fold depletion of shRNA” value [1] was 1.74.
With TTGCAACAACCTGCCCCTGAG the “fold depletion of shRNA” value [1] was 11.2.
For TTGCAATCAAAGATGATAAAA, the “fold depletion of shRNA” value [2] was 0.795.
In the case of TTGCACAGTTTATTGGTGTCA, the “fold depletion of shRNA” value [2] is reported as 2.22.
With TTGCACCAAATGTGAACATGG the “fold depletion of shRNA” value [2] was 1.28.
In the case of TTGCAGAGAAAATTCAGACTA, the “fold depletion of shRNA” value [2] is reported as 1.51.
With TTGCATAATAAGCTAAAGAGG the “fold depletion of shRNA” value [1] was 0.777.
In the case of TTGCATTTGGTCAAGATTTTG, the “fold depletion of shRNA” value [1] is reported as 30.9.
In the case of TTGCCAATTCCACTAATTGTT, the “fold depletion of shRNA” value [2] is reported as 1.46.
TTGCCCCTTGTGTTTGGAATT was tested, and the “fold depletion of shRNA” value [2] was 0.741.
For TTGCCTCTAAATTACCTCTGA, the “fold depletion of shRNA” value [2] was 2.93.
In the case of TTGCCTTGGTGCTCATCTTAA, the “fold depletion of shRNA” value [2] is reported as 10.9.
